The record followed here is article doi:10.1101/2022.05.24.493195 (bioRxiv, 2022).

This experiment concerns the target T161 phosphorylated CDK1 (full-length human CDK1) (human, UniProt P06493, phosphothreonine at T161). Description: SEC. For orientation: Size exclusion chromatography separates by hydrodynamic size, large species first.

B1: Bovine cyclin A2, […] (domain or fragment)
chain: not shown
For the molecule B1, the binding result was “binds”.
